# Reference: PubChem BioAssay AID588342 (National Center for Advancing Translational Sciences (NCATS), 2011)
# In all, about 360,000 compounds went through this assay and about 25,000 (6.9%) were called active. Inconclusive means that the source gave no clear call. Such entries were picked first, then a sample of the others. Calls come from the whole dose curve; as a rule, active = well fitted inhibition curve with a large enough effect; inconclusive = small, poorly fitted or top-dose-only effect; inactive = flat fitted curve, though single readings scatter. Potencies beside an inconclusive call are fits to weak or partial responses and may not hold up.
# Target: Luciferin 4-monooxygenase (Photinus pyralis) (UniProt P08659)
# UniProt P08659, sequence (P08659 whole entry, looked up): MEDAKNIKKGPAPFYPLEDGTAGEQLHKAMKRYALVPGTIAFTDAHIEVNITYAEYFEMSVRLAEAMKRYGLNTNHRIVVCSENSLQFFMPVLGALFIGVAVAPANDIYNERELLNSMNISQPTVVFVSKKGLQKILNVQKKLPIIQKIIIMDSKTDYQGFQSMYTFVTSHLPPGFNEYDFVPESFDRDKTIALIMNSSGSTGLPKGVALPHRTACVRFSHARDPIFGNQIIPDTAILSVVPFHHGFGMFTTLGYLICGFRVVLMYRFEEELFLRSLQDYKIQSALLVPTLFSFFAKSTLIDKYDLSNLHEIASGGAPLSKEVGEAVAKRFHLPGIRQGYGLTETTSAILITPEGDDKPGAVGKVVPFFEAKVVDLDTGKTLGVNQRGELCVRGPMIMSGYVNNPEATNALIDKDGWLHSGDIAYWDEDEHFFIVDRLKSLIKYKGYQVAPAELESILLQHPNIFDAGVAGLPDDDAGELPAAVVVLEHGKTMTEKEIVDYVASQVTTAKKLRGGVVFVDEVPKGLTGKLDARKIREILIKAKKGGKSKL
# Test: qHTS profiling assay for firefly luciferase inhibitor/activator using purifed enzyme and Km concentrations of substrates (counterscreen for miR-21 project); note: nearly all actives have a fitted effect of over 55% in size;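 for activity change, negative = inhibition: plate controls were vehicle for no effect and reference inhibitor for full effect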
# Settings: purified FLuc, luminescence inhibition; series mostly up to 57.5 µM; activity change, negative = inhibition: at the top concentration
# Summary of the method: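 Purified P. pyralis luciferase (10nM final) with 10uM D-luciferin and 10uM ATP (Km levels) in 50mM Tris acetate pH 7.5, 10mM Mg acetate, 0.01% Tween-20, 0.05% BSA; qHTS 6-point titration, ~60 µM downward; luminescence read.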
# Potency is the fitted concentration of half-maximal effect; tags give direction and shape of the fitted curve.
Structure (SMILES),Potency,"activity change, negative = inhibition"
COc1ccc(Nc2ccc([N+](=O)[O-])cn2)cc1,"inconclusive: 23.9 µM [inhibitor, single point]",
O=S(=O)(Nc1cccc(C(F)(F)F)c1)c1ccc(-c2cnc(C3CC3)o2)cc1,"inconclusive: 21.3 µM [inhibitor, partial curve, poor fit]",
O=C(CCCc1ccccc1)Nc1ccccn1,"inconclusive: 23.9 µM [inhibitor, partial curve, poor fit]",
COc1ccc(NC(=O)CSc2n[nH]c(C)c2[N+](=O)[O-])cc1,"inconclusive: 37.9 µM [inhibitor, partial curve, poor fit]",
CCN(CC)c1ccc(NC(=O)c2ccccc2)cc1S(=O)(=O)Nc1ccccc1OC,"inconclusive: 26.9 µM [inhibitor, partial curve, poor fit]",
O=C(Nc1ccccn1)c1ccc(S(=O)(=O)N2CCCC2)cc1,"inconclusive: 42.6 µM [inhibitor, partial curve, poor fit]",
O=C(CCc1c[nH]c2ccccc12)N1CCN(S(=O)(=O)c2ccc(F)cc2)CC1,,inactive: 0.226%
O=C(NCC1CCCO1)c1ccc2ccccc2n1 (stereo not given),"inconclusive: 37.9 µM [inhibitor, partial curve, poor fit]",
CCC1Oc2ccccc2N(CC(=O)NCCCN2CCN(c3ccc(OC)cc3)CC2)C1=O (stereo not given),,inactive: -1.24%
O=C(N/N=C/c1cc([N+](=O)[O-])ccc1O)C12CC3CC(CC(C3)C1)C2,"inconclusive: 37.9 µM [inhibitor, single point]",
O=C(CSc1nnc(-c2ccc(Cl)cc2)n1-c1ccccc1)N/N=C/c1ccccc1C(=O)O,"inconclusive: 33.8 µM [inhibitor, partial curve, poor fit]",
Cc1nc2ccccc2nc1OCc1ccccc1,"inconclusive: 23.9 µM [inhibitor, single point]",
Fc1ccc(N/N=C/c2ccncc2)c(F)c1,"inconclusive: 21.3 µM [inhibitor, single point]",
Clc1ccc(N=C2SCCS2)cc1,"inconclusive: 23.9 µM [inhibitor, partial curve]",
CCOc1ccc(/C=N/NC(N)=S)cc1,"inconclusive: 37.9 µM [inhibitor, partial curve, poor fit]",
CCOC(=O)CN1N=C(/C=C/c2ccc(C(C)C)cc2)CCC1=O,"inconclusive: 21.3 µM [inhibitor, single point]",
O=C(CSc1ccccc1)NC1CCCCCCC1,"inconclusive: 30.1 µM [inhibitor, partial curve, poor fit]",
CC(c1ccon1)N(C)C(=O)CCc1nnc(C2(c3ccc(Cl)cc3)CCC2)o1 (stereo not given),"inconclusive: 30.1 µM [inhibitor, single point]",
CN(C)c1cccc2c(S(=O)(=O)N3CCCC3)cccc12,"inconclusive: 37.9 µM [inhibitor, single point]",
COc1ccc2c(c1)Cc1sc(NC(=O)c3cccc(C)c3)nc1-2,"inconclusive: 6.75 µM [inhibitor, partial curve]",
COc1ccc(-c2ccnc(-c3ccc(O)cc3)n2)cc1,"inconclusive: 13.5 µM [inhibitor, partial curve, poor fit]",
O=[N+]([O-])c1ccc(CSc2ncnc3ccccc23)cc1,"inconclusive: 26.9 µM [inhibitor, single point]",
CC(C)(C)C(=O)Nc1nnc(COc2ccc(Cl)cc2)s1,"inconclusive: 37.9 µM [inhibitor, partial curve, poor fit]",
COc1ccc(CSc2nc3ccncc3n2CC(=O)Nc2ccc(C)c(F)c2)cc1,"inconclusive: 0.601 µM [inhibitor, full curve, poor fit]",

Structure (SMILES),Potency,"activity change, negative = inhibition"
COc1ccc(NC(=O)Nc2ccc3c(c2)N(C)C(=O)CS3)cc1OC,"inconclusive: 26.9 µM [inhibitor, partial curve, poor fit]",
COc1ccc(-c2noc(C3CCCN(C(=O)c4ccc(C)cc4)C3)n2)cc1 (stereo not given),"inconclusive: 30.1 µM [inhibitor, partial curve, poor fit]",
CCS(=O)(=O)c1ccc2oc(Nc3ccccc3C)nc2c1,active: 13.5 µM,
CCOC(=O)c1cnc2nc(NCc3cccc(Br)c3)[nH]n2c1=O,"inconclusive: 26.9 µM [inhibitor, single point]",
CCOc1ccc(NC(=S)NNC(=O)c2cc(Br)ccc2Cl)cc1,"inconclusive: 30.1 µM [inhibitor, partial curve, poor fit]",
O=C(CSc1nc(-c2ccccc2)c(-c2ccccc2)o1)Nc1nnc(-c2ccccc2)s1,,inactive: 2.25%
CCOC(=O)C1=C(COC(=O)c2cccc(Br)c2)NC(=O)NC1C (stereo not given),,inactive: 1.98%
O=C(Nc1ccc(Cc2ccncc2)cc1)c1cccs1,"inconclusive: 23.9 µM [inhibitor, single point]",
CCOC(=O)c1sc(NC(=O)c2ccc(OC(C)=O)cc2)nc1C,"inconclusive: 3.38 µM [inhibitor, full curve]",
O=[N+]([O-])c1cc(-c2ccc(/C=N/c3nc4ccccn4c3-c3ccco3)o2)ccc1Cl,"inconclusive: 33.8 µM [inhibitor, partial curve, poor fit]",
Cn1c(CCNS(=O)(=O)c2ccccc2)nnc1SCc1cccnc1,,inactive: 0.534%
CCOC(=O)c1ccc(S(=O)(=O)Nc2nc3cc(S(=O)(=O)NC4=NCCCCC4)ccc3s2)cc1,"inconclusive: 23.9 µM [inhibitor, partial curve]",
O=C(c1cc(-c2cccs2)nc2ccccc12)N1CCN(c2ccccc2)CC1,active: 10.7 µM,
Cc1ccc(C(=O)O/N=C(\c2ccccc2)c2cccnc2)cc1,active: 16.9 µM,
O=S(=O)(Cc1ccc(Cl)cc1)N1CCCCCC1,"inconclusive: 19 µM [inhibitor, partial curve, poor fit]",
Cc1cc(C(=O)Nc2cccc(/C=C/C(=O)O)c2)c(C)o1,active: 13.5 µM,
Cn1ncc([N+](=O)[O-])c1C(=O)Nc1ccc(-c2nc3ccccc3[nH]2)cc1,active: 21.3 µM,
COc1ccccc1OCC(=O)NCC(c1ccc(Cl)cc1)N1CCOCC1 (stereo not given),,inactive: -8.31%
Cc1ccc(NC(=O)Cn2c(=O)n(CCCCC(=O)NCc3ccccc3Cl)c(=O)c3ccccc32)cc1,,inactive: -2.87%
CCCc1nn2c(=O)cc(COc3ccc(/C=C(\C#N)C(=O)Nc4ccccc4)cc3)nc2s1,,inactive: -1.01%
O=C(Nc1cccc(C(F)(F)F)c1)c1cc(-c2ccco2)on1,"inconclusive: 21.3 µM [inhibitor, partial curve, poor fit]",
c1coc(CSc2ncnc3c2oc2ccccc23)c1,active: 19 µM,
Cc1ccc(C(=O)NCCOc2ccc(Cl)cc2)cc1,active: 23.9 µM,
CC(=O)Cn1cnc2c(cnn2-c2ccc(C)c(C)c2)c1=O,active: 23.9 µM,

Structure (SMILES),Potency,"activity change, negative = inhibition"
COc1cc(/C=N/O)ccc1OCc1ccc(Cl)cc1,active: 1.35 µM,
COc1ccccc1N1C(C)=CC(=C(C#N)c2nc3ccccc3s2)C=C1C,active: 3.01 µM,
CN(C)c1ccc(C(=O)NC2(N3CCC3=O)CCCC2)cc1,"inconclusive: 30.1 µM [inhibitor, partial curve, poor fit]",
COc1ccc(/C=N/NC(=O)c2nn(-c3ccccc3)c(=O)c3c(N)scc23)cc1,active: 9.53 µM,
O=C(NC1CCCC1)c1ccc(S(=O)(=O)N2CCOCC2)cc1,"inconclusive: 8.49 µM [inhibitor, partial curve, poor fit]",
O=c1cc(-c2ccccc2)n2c(SCc3c(F)cccc3Cl)nnc2[nH]1,"inconclusive: 2.69 µM [inhibitor, partial curve, poor fit]",
CC1(c2cccc(Br)c2)NC(=O)N(CC(=O)Nc2ccc(S(N)(=O)=O)cc2)C1=O (stereo not given),,inactive: -0.739%
C/C(=C\c1ccc2c(c1)OCO2)C1Nc2cccc3cccc(c23)N1,"inconclusive: 12.6 µM [inhibitor, partial curve, poor fit]",
O=C(Cn1ncc2ccsc2c1=O)N1CCN(c2ccccc2F)CC1,,inactive: 3.18%
CCOC(=O)c1c(C)[nH]c(C(=O)NCc2ccccn2)c1C,"inconclusive: 21.3 µM [inhibitor, partial curve]",
O=S(=O)(c1ccc(-n2cnnn2)cc1)N1CCN(c2cccc(Cl)c2)CC1,,inactive: -0.352%
CC[C@H](C)C(N)c1cn([C@@H](CC(N)=O)C(=O)N2CCNCC2)nn1 (stereo not given in full),,inactive: 3.57%
Cc1ccc(-n2ncc3c(=O)n(Cc4ccccn4)cnc32)cc1C,"inconclusive: 19 µM [inhibitor, partial curve]",
COc1ccc(-c2cc(C(=O)N3CCCC3)no2)cc1,active: 1.2 µM,
CCNC(=S)/N=C(/Nc1ccc(OC)cc1)Nc1nc(C)cc(C)n1,"inconclusive: 9.53 µM [inhibitor, partial curve, poor fit]",
COc1ccc(-c2nc(CS(=O)CC(=O)NC3CCC(C)CC3)c(C)o2)cc1OC (stereo not given),"inconclusive: 21.3 µM [inhibitor, single point]",
CCOc1ccc2nc(NC(=O)CCC(=O)c3cccs3)sc2c1,active: 1.9 µM,
CCOc1ccc(NC(=O)CCc2ccc(C)o2)cc1,,inactive: -18.5%
O=C1C2C3C=CC(C4CC34)C2C(=O)N1/N=C/c1cccs1 (stereo not given),active: 16.9 µM,
O=C1NC(=O)/C(=C\c2ccc(O)cc2O)S1,"inconclusive: 26.9 µM [inhibitor, single point]",
COc1ccc(NC(=O)n2ncc3c(C)cccc32)cc1,active: 3.01 µM,
C/C(=N/NC(=O)c1ccc(C)nc1)c1ccc2c(c1)CCCC2,"inconclusive: 16.9 µM [inhibitor, partial curve, poor fit]",
